From PubChem BioAssay AID1345082 (National Center for Advancing Translational Sciences (NCATS), 2018)
Out of some 94,000 compounds screened, about 4,000 (4.3%) were called active. The inconclusive results got no clear call from the source; some entries with a clear call stand among them for comparison. The call rests on the fitted dose curve; in most records, active means well fitted inhibition curve with a large enough effect; inconclusive means small, poorly fitted or top-dose-only effect; inactive means no such curve, though single readings can be large or run the other way. Potencies of inconclusive entries are doubtful fits and often do not repeat.

Assay: Cytotoxic Profiling in NIH 3T3 Cell Line of Diverse Libraries Using Quantitative High-Throughput Screening; further: nearly all actives have a fitted effect of over 55% in size
Conditions: NIH 3T3 viability, CellTiter-Glo ATP luminescence, 48-72 h; series mostly up to 96.7 µM
Method in brief: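 NIH 3T3 cells at 400 cells/well received 23 nL of compound by pintool and were incubated 48 or 72 h at 37 °C. Viability was read as ATP-coupled CellTiter-Glo luminescence.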
Potency means the concentration at half of the fitted maximal effect; tags describe the fitted curve by direction and shape.

SMILES	Potency
COCCN1C(=O)CCc2cc(NC(=O)c3ccc(C)c(C)c3)ccc21	inconclusive: 44.7 µM [inhibitor, partial curve, poor fit]
Cc1ccccc1C(=O)N1CCC(C(=O)N2CCC(N3CCOCC3=O)CC2)CC1	inactive
O=C(Cc1cccc(F)c1)NC1CCN(c2cc(-c3ccc(Cl)cc3)[nH]n2)CC1	inconclusive: 11.2 µM [inhibitor, full curve, poor fit]
O=C(Nc1ccc(Cl)cc1)c1cc2n(n1)CC(c1ccc(Cl)cc1)OC2 (stereo unspecified)	inconclusive: 44.7 µM [inhibitor, partial curve, poor fit]
COCCN1CCOc2nc(-c3ccc(Oc4ccccc4)cc3)ncc2C1=O	inconclusive: 56.2 µM [inhibitor, partial curve, poor fit]
COc1ccc(Nc2ccnc(N3CCCC(C(=O)NCc4cccs4)C3)n2)cc1 (stereo unspecified)	active: 35.5 µM
Cc1cnc(CC2CCN(C(=O)C3CCCC3)C2)n1C1CC1 (stereo unspecified)	inactive
CC(=O)N1CC2(Cc3ccccc31)CN(C(=O)Cc1ccc(F)cc1)C2	inconclusive: 89.1 µM [inhibitor, partial curve]
O=C1Nc2ccc(-c3ccco3)cc2C(=O)N2CCN(C(=O)c3ccccc3)C[C@H]12	inconclusive: 11.2 µM [inhibitor, partial curve, poor fit]
O=C(Nc1ccncc1)C1=NO[C@@H]2CN(CCc3ccccc3)C[C@H]12	inconclusive: 14.1 µM [inhibitor, full curve, poor fit]
Cc1ccc(C2Cn3nnc(C(=O)N4CCN(C(=O)c5ccco5)CC4)c3CO2)cc1 (stereo unspecified)	inactive
COc1ccc(C2(C(=O)N3CCN(Cc4ccccc4)CC3)CCOCC2)cc1	inactive
Cc1cn2nc(C(=O)NC3CCc4ccccc43)cc2c(N2CCCC2)n1 (stereo unspecified)	inconclusive: 70.8 µM [inhibitor, single point]
NC1CC(c2cc(N3CCN(CCOc4ccccc4)CC3)ncn2)C1 (stereo unspecified)	inconclusive: 50.1 µM [inhibitor, partial curve, poor fit]
COC(=O)[C@H](CC1CCCCC1)NC(=O)[C@@H]1CN(C(=O)c2ccc(N(C)C)cc2)CCN1C(C)=O	inconclusive: 50.1 µM [inhibitor, partial curve, poor fit]
CCN1c2cc(C(=O)NCc3ccccc3Cl)ccc2C(=O)N2CCCCCC21 (stereo unspecified)	inconclusive: 35.5 µM [inhibitor, partial curve, poor fit]
CCCN1C(=O)Cc2ccccc2C1C(=O)NCc1ccc(F)c(Cl)c1 (stereo unspecified)	inconclusive: 50.1 µM [inhibitor, single point]
Cc1ccc(C)c(NC(=O)CN2C(=O)NC3(CCC(C)CC3)C2=O)c1 (stereo unspecified)	inconclusive: 63.1 µM [inhibitor, partial curve, poor fit]
CN1C[C@@H](NC(=O)c2ccc(F)cc2)C[C@H]1c1nc(-c2ccc3c(c2)OCO3)no1	inconclusive: 112 µM [inhibitor, single point]
COc1ccccc1-c1ccc(C(=O)N2CCC(C(=O)NCc3cccs3)CC2)cc1	inconclusive: 50.1 µM [inhibitor, single point]
O[C@@H]1C[C@@H](c2nc(-c3ccc4c(c3)OCO4)no2)N(CC2CC2)C1	inactive

SMILES	Potency
CCc1ccc(C(=O)N2CCC(Cc3nc(-c4ccc(OC)cc4)no3)CC2)cc1	inconclusive: 31.6 µM [inhibitor, partial curve, poor fit]
COc1ccc(-c2cc(C(=O)NCCc3cnc[nH]3)c3c(c2)N(C)CCO3)cn1	inconclusive: 79.4 µM [inhibitor, partial curve]
C#CCNC(=O)c1cc(-c2ccc([S+](C)(=O)[O-])cc2)nc2c1cnn2C	inactive
O=C(NCCN1C(=O)C2(CCCCC2)C1c1ccccc1)NCc1ccccc1 (stereo unspecified)	inconclusive: 56.2 µM [inhibitor, partial curve, poor fit]
COc1ccc(C(=O)NC2CCCN(c3cc(-c4ccc(F)cc4)[nH]n3)C2)c(C)c1 (stereo unspecified)	inconclusive: 39.8 µM [inhibitor, partial curve, poor fit]
Cc1noc(C)c1[S+](=O)([O-])N1CCC2(CC1)CC(c1cccc(C(F)(F)F)c1)=NO2	active: 4.47 µM
O=C1CCN(C(=O)C2CCN(C(=O)C3CC3)CC2)CCCCCCN1	inactive
O=C(O)CCC(=O)N1Cc2ccccc2CC2(CCCN2Cc2cccnc2)C1 (stereo unspecified)	inactive
Nc1nc(C2CC(O)C2)cc(N2CCC(OCc3ccccn3)CC2)n1 (stereo unspecified)	inconclusive: 25.1 µM [inhibitor, full curve, poor fit]
CCOc1ccccc1NC(=O)N1CCC(c2cc(-c3cccc(OC)c3)n[nH]2)CC1	active: 35.5 µM
COc1ccccc1C(=O)Nc1ccc([C@H]2OCC(=O)N(Cc3cccnc3)[C@@H]2CO)cc1	inconclusive: 63.1 µM [inhibitor, partial curve, poor fit]
CCOc1ccc(CC(=O)NC2CCN(c3cc(-c4ccccc4)[nH]n3)CC2)cc1	inconclusive: 8.91 µM [inhibitor, full curve]
COc1ccc(CN2CCn3c(nnc3-c3cccnc3)C2)cc1	inactive
Cc1ccc(-c2ccccc2CN2CCN(C(=O)C(C)(C)C)CC2)cc1Cl	inconclusive: 44.7 µM [inhibitor, partial curve, poor fit]
O=C(NCCN1CCOCC1)C1CCc2ncc(-c3ccc(F)cc3)n2C1 (stereo unspecified)	inactive
O=C1COc2ccc(Nc3ccccc3)nc2CN1Cc1ccccc1	inconclusive: 56.2 µM [inhibitor, partial curve, poor fit]
CCOC(=O)[C@H]1C[C@]2(CCCCNC2=O)N(C(=O)c2cccc(OC)c2)[C@H]1c1ccco1	inconclusive: 79.4 µM [inhibitor, partial curve, poor fit]
COc1ccc(S(=O)(=O)N2C[C@@H]3C[C@H](C2)c2ccc(NS(=O)(=O)c4cccs4)c(=O)n2C3)cc1	inconclusive: 79.4 µM [inhibitor, partial curve]
Cc1c(C(=O)N(C)Cc2cc(-c3cccnc3)no2)oc2c(F)cccc12	inconclusive: 39.8 µM [inhibitor, full curve, poor fit]
CN(c1ccccc1)c1ccc2nnc(-c3cc(C(=O)NC4CCC(O)CC4)ccn3)n2n1 (stereo unspecified)	inconclusive: 56.2 µM [inhibitor, partial curve, poor fit]
O=C1NCc2ccccc2CC12CCCN(Cc1cccc(Cl)c1)C2 (stereo unspecified)	inconclusive: 89.1 µM [inhibitor, single point]

SMILES	Potency
COc1c[nH]c(CN2CCCC(CCc3ccccc3C(F)(F)F)C2)cc1=O (stereo unspecified)	inconclusive: 50.1 µM [inhibitor, partial curve, poor fit]
C[C@@H]1CN(C(=O)CCN2CCCCCC2=O)C[C@]1(C)O	inactive
COc1cc(NC(=O)c2ccc(Cn3ccn4nc5c(c4c3=O)CCCC5)cc2)cc(OC)c1OC	inconclusive: 7.08 µM [inhibitor, full curve, poor fit]
COc1ccc(-c2ccc3c(c2)C(=O)N2CC[C@H](NS(=O)(=O)c4cccs4)[C@H]2C(=O)N3)cc1	inconclusive: 25.1 µM [inhibitor, full curve]
COCCn1c(C)cc(C(=O)N2CCC3(CC2)CC(CN2CCOCC2)N(C)C3)c1C (stereo unspecified)	inactive
CC(NC(=O)c1cc2c(s1)CCN(C(=O)c1ccccc1)C2)c1ccc(F)cc1 (stereo unspecified)	inconclusive: 70.8 µM [inhibitor, single point]
CC(C)C[C@@H]1N[C@H](C(=O)NCc2ccccc2)Cc2cn(Cc3ccncc3)c3cccc1c23	inconclusive: 44.7 µM [inhibitor, partial curve, poor fit]
CC(NC1CCN(c2ccc(NC(=O)C3CCCC3)cc2)CC1)c1cccs1 (stereo unspecified)	inactive
COc1ccc(-c2nc(C)nc3c2CCN(Cc2cccc4ccccc24)CC3)cc1	inconclusive: 50.1 µM [inhibitor, partial curve, poor fit]
O=C(COc1ccccc1)Nc1ccc([C@@H](O)[C@H]2COCC(=O)N2Cc2ccc(C(F)(F)F)cc2)cc1	inconclusive: 50.1 µM [inhibitor, partial curve, poor fit]
O=C1COc2ccc(N3CCCC3)nc2CN1Cc1ccccc1	inconclusive: 56.2 µM [inhibitor, partial curve, poor fit]
Cc1ccc(CC(=O)N2CCC(c3n[nH]c(=O)n3-c3ccccc3)CC2)cc1	active: 35.5 µM
COc1ccc(C(CC(=O)NCc2ccccc2)c2c[nH]c3ccccc23)cc1OC (stereo unspecified)	inactive
O=C(c1cc2ccccc2[nH]1)N1CCC2(C1)NC(=O)N(Cc1ccccc1)C2=O (stereo unspecified)	inconclusive: 50.1 µM [inhibitor, partial curve, poor fit]
CC(O)CN1CCC(=O)N(C/C=C/c2ccccc2)Cc2ccccc21 (stereo unspecified)	inconclusive: 50.1 µM [inhibitor, partial curve, poor fit]
O=C(Cn1ccn2nc(-c3ccc(F)cc3)c(CO)c2c1=O)Nc1ccc(F)c(F)c1	inconclusive: 44.7 µM [inhibitor, partial curve, poor fit]
O=C1NC2(CCN([S+](=O)([O-])c3ccccc3)C2)OCc2ccccc21 (stereo unspecified)	inconclusive: 56.2 µM [inhibitor, partial curve, poor fit]
CNC(=O)C1CCCN(Cc2cccc(-c3ccccc3OC)c2)C1 (stereo unspecified)	inactive
C=CCC(=O)N(CC1CCN(CCc2ccccc2C)CC1)C1CCCC1	inconclusive: 79.4 µM [inhibitor, partial curve, poor fit]
